Source: PubChem BioAssay AID624414 (National Center for Advancing Translational Sciences (NCATS), 2012)
Screen size: about 410,000 compounds; about 480 (0.12%) were called active. The shares of active, inactive and inconclusive entries below differ from those in the screen. No stated cut-off is given here; in the data, active means activation above about 50%; inconclusive means mostly about 30% to 49%; inactive means weaker than that.

molecular target: Mucolipin-1 (Homo sapiens) (UniProt Q9GZU1); experiment: qHTS for Agonists of the Human Mucolipin Transient Receptor Potential 1 (TRPML1); conditions: TRPML1-expressing cells, Ca2+ dye fluorescence, FDSS; active compounds read high; further: 0% is about no effect
Sequence of UniProt Q9GZU1 (Q9GZU1 whole entry, looked up): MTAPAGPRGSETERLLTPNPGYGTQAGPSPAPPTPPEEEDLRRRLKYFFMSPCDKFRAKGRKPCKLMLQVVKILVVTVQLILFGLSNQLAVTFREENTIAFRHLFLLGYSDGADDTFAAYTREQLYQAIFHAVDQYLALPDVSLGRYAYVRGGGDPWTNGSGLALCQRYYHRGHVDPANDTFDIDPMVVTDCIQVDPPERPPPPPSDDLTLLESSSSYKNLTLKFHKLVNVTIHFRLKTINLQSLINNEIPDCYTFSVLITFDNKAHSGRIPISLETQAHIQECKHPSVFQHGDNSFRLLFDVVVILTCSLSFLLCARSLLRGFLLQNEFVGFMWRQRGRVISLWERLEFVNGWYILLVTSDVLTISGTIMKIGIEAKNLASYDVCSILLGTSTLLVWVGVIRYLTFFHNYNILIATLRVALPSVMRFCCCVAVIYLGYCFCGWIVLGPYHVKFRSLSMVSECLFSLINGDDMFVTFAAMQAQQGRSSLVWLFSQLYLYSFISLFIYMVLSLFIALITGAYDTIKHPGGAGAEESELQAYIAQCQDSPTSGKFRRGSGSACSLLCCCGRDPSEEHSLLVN
Outline: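 Cells: TRPML1-DL, 1X Tet inducer, ~16 h at 37 degrees C/5% CO2. Dye: ABD Ca8 no-wash + quencher, 45-90 min RT. Read: 10 s baseline, compound add, 110 s agonist phase; 54-4 EC80 (4uM final), 110 s antagonist phase.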

Structure (SMILES) | activation
CCN(CC)c1ccc(/C=C(/C#N)C(=O)NCc2ccccc2)o1 | inconclusive: 32.2%
CCOC(=O)c1cc2n(c1/N=C/N(C)C)-c1ccccc1C2=O | inconclusive: 40.8%
COCCCNC(=S)N1CCCN(c2nc3cc(C)c(C)cc3cc2C#N)CC1 | inconclusive: 43.6%
Cc1ccc(C)c(N2CCN(S(=O)(=O)c3c(C(=O)N4CCC(C)CC4)c(C)n(C)c3C)CC2)c1 | active: 54.9%
CC[N+](C)(C(=O)O)/C(=C\c1ccccc1)c1ccnc2ccccc12 (configuration not stated) | inconclusive: 30.2%
FC(F)(F)Oc1ccccc1C(c1nnnn1C1CCCC1)N1CCN(C/C=C/c2ccccc2)CC1 (configuration not stated) | inconclusive: 43.8%
O=S(=O)(Nc1ccccc1N1CCOCC1)c1ccc(F)c(Cl)c1 | inconclusive: 47.3%
CC(O)CNc1nc2c(c(=O)n(Cc3ccc(Cl)cc3)c(=O)n2C)n1C (configuration not stated) | inconclusive: 38.3%
CSc1ccc(S(=O)(=O)N2c3ccccc3CC2C)cc1 (configuration not stated) | inconclusive: 32.3%
CCOc1ccccc1CNC(=O)c1ccc2c(c1)sc1nc(-c3cccc(OC)c3)cn12 | inactive: 0.0861%
CC1(C)CCN2CCC(C)(C)c3c(O)ccc1c32 | inconclusive: 36.8%
COc1ccc(NC(=O)c2sc3nc(C)nc(N4CCN(c5ccccn5)CC4)c3c2C)c(OC)c1 | active: 105%
O=C(COC(=O)c1cccc(S(=O)(=O)N2CCOCC2)c1)c1ccccc1 | inconclusive: 43.4%
CC(C(=O)N1CCc2ccccc21)N(C)CC(=O)Nc1ccc(F)cc1 (configuration not stated) | active: 51.7%
COc1ccccc1-c1cc(C(=O)NCc2ccccc2)no1 | inactive: -0.241%
CN(Cc1ccccc1)c1ccc(/C=C/c2ccnc3ccccc23)cc1 | inconclusive: 30.3%
Nc1c(C(=O)c2ccccc2)sc2nsc(SCCN3CCCC3)c12 | inconclusive: 48.7%
CN1C2CCC1/C(=C/c1cccn1C)C(=O)/C2=C\c1cccn1C | inconclusive: 47.6%
Cc1cc(N2CCCC2)c(F)cc1/C=C\[N+](=O)[O-] | active: 51.5%
Nc1ccc[n+](CC(=O)c2ccc(F)cc2)c1 | inconclusive: 47.8%
COc1ccc(Nc2sc(C(=O)c3ccc(Cl)cc3)c(N)c2C(=O)Nc2ccccc2OC)cc1 | inconclusive: 45.8%
COc1cc(NC(C)=O)c2ncccc2c1NC(C)=O | inactive: 2.37%
Cc1c(C(=O)NCc2ccc(Cl)cc2)oc2ccc3c(c12)C(=O)CC(C)(C)O3 | inconclusive: 49.5%

Structure (SMILES) | activation
CCOC(=O)c1cnc2cc(-c3ccc(OCC)cc3)nn2c1-c1ccccc1 | inconclusive: 46.5%
COc1ccc(NC(=O)c2cc3ccccc3cc2OC)cc1OC | inconclusive: 49.8%
C=CCC1=C/C(=C\c2c(N)n3nc(CC(=O)N4CCCC4)sc3nc2=O)C=C(OC)C1=O | active: 68.3%
Clc1ccc2nc(N3CCCCC3)sc2c1 | inconclusive: 30.3%
Cc1cc(C)nc(/N=C(\N)Nc2ccc(-c3ccccc3)cc2)n1 | inconclusive: 49.9%
Cc1cc(C)cc(OCC(=O)Nc2nc3c(s2)CC(C(C)(C)C)CC3)c1 (configuration not stated) | inconclusive: 49.8%
Nc1ccc2c3c(cccc13)-c1ccccc1-2 | inconclusive: 44.7%
C[C@H](CO)N1C[C@H](C)[C@@H](CN(C)S(=O)(=O)c2cccs2)Oc2c(NS(=O)(=O)c3ccc(F)cc3)cccc2C1=O | inactive: 1.12%
O=C(NC1CC1)c1cccc2c1C(=O)c1ccc(N3CCC(Cc4ccccc4)CC3)cc1S2(=O)=O | inconclusive: 32.4%
CCCCn1nnnc1C(c1ccccc1)N1CCN(c2c(Cl)cncc2Cl)CC1 (configuration not stated) | inconclusive: 47.6%
Cc1cc2nc3c(=O)n(CCc4ccccc4)c(=O)[nH]c3nc2cc1N | active: 114%
COc1ccc(OC)c(C(c2nnnn2C2CCCC2)N2CCN(c3ccccc3F)CC2)c1 (configuration not stated) | inconclusive: 38.3%
Cc1ccc(/C=C/C(=O)Nc2ccc(S(=O)(=O)Nc3onc(C)c3C)cc2)cc1 | inconclusive: 36.4%
COc1cccc2cc(C(=O)NCc3ccc(F)cc3)c(=N)oc12 | inactive: -0.213%
Oc1c(Br)cc(C2N=C(c3ccccc3)NO2)cc1Br (configuration not stated) | inconclusive: 37.9%
O=C(COC(=O)C1(c2ccccc2F)CCCC1)Nc1ncc(C(F)(F)F)cc1Cl | inconclusive: 41.2%
CCCC(=O)N(c1ccc2oc3c(c2c1)CCCC3)S(=O)(=O)c1ccc(CC)cc1 | active: 63.8%
COc1ccc2nc(NC(=O)c3ccc(-n4nc(C)cc4C)cc3)sc2c1 | active: 68.3%
NC(=O)NNC1=Nc2cccc3cccc1c23 | inactive: -1.12%
COc1cc(Cl)c(C)cc1NC(=O)c1cnn(-c2ccc(F)cc2F)c1C1CCN(C(=O)OC(C)(C)C)CC1 | inconclusive: 43.8%
CCOC(=O)c1c(C)sc(-c2c(-c3cccc(Cl)c3)[nH]c3c2c(=O)n(C)c(=O)n3C)c1O | inconclusive: 46.3%
C/C(=N\Nc1ccc([N+](=O)[O-])cc1[N+](=O)[O-])c1ccc(-n2nncc2C(C)(C)C)cc1 | active: 76%
CN(C)c1ccc(/C=C2\NC(=S)N(Cc3ccccc3)C2=O)cc1 | active: 66.5%

Structure (SMILES) | activation
Cc1cc(S(=O)(=O)NCc2ccccc2)ccc1OCC(=O)NCC1CCCO1 (configuration not stated) | inconclusive: 48.3%
CC(=O)Oc1ccc2cc(-c3nc4c(s3)CCc3ccccc3-4)c(=O)oc2c1 | inconclusive: 49.3%
Cc1ccc(C(=O)NC(=S)NNC(=O)c2ccccc2O)cc1 | inconclusive: 44.5%
COc1ccc([N+](=O)[O-])cc1NC(=O)C(C)OC(=O)CC1CCCC1 (configuration not stated) | inconclusive: 33.9%
CCN1CCN(Cc2c(O)ccc3c2O/C(=C\C=C\c2ccccc2)C3=O)CC1 | inconclusive: 41.2%
CCOc1ccc(C(=O)N2CCN(c3cccc(Cl)c3)CC2)cc1 | inactive: 1.92%
CC(C)(C)n1ncc2c(=O)n(Cc3cccc(C(F)(F)F)c3)cnc21 | inactive: 0.563%
CC(=O)Nc1cc(-c2ccccc2Cl)cn2c(-c3ccc(S(C)(=O)=O)cc3)cnc12 | inactive: 0.397%
C=CCC1[C@H](C)[C@H]2[C@@H]3CC[C@@H](C3)[C@H]2CN1S(=O)(=O)c1ccc(C)cc1 (some centres not stated) | active: 54%
Cc1nc(SCC(=O)CC(=O)OC(C)C)c(C#N)c(C)c1C | active: 71.2%
COc1cc(C2C=C(c3cccs3)Nc3ncnn32)cc(OC)c1OC (configuration not stated) | inconclusive: 30.1%
O=C1CCN2C=Nc3cccc4ccc1c2c34 | inconclusive: 43.4%
O=C(NCC1(c2ccccc2)CCCC1)c1cccc(Br)c1 | inconclusive: 43.5%
Cc1ccc(NC(=O)c2sc3nc(-c4ccncc4)ccc3c2N)cc1 | inconclusive: 39.7%
COc1cccc(NC(=O)c2c(N3CCCC3=O)c3cc(C)ccc3n2C)c1 | inactive: 0.928%
O=C(Nc1cccc(F)c1)C1CCN(C(=O)c2ccc(Br)cc2)CC1 | inconclusive: 33.3%
CC1(C)CC[C@]2(C(=O)O)CC[C@]3(C)C(=CC[C@@H]4[C@@]5(C)CC[C@H](O[C@@H]6O[C@H](C(=O)O)[C@@H](O)[C@H](O[C@@H]7OC[C@H](O)[C@H](O)[C@H]7O)[C@H]6O)C(C)(C)[C@@H]5CC[C@]43C)[C@@H]2C1 | inconclusive: 36.3%
CC(C)(C)c1nc(SCC(=O)Nc2nc3c(s2)CCCC3)c2ccccc2n1 | inconclusive: 49.5%
O=C(O)c1ccccc1-c1ccc(/C=C/c2cc(C(F)(F)F)[nH]c(=O)n2)o1 | inconclusive: 34.1%
O=C(COc1ccc(F)cc1Br)Nc1ccccc1N1CCOCC1 | active: 70.9%
Cc1cc(/C=C2\NC(=S)N(C)C2=O)ccc1N1CCCC1 | active: 94%
